Experimental data: the supplement of paper PMC12067230
This is a noisy data set.
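Further: [psi-pin-] Saccharomyces cerevisiae expressing SupN fusions, induced by 100 µM Cu2SO4, selected 7 d at 30 °C without adenine and uracil, scored by deep sequencing of output versus input.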

Assay: amyloid nucleation score relative to library mode (yeast Sup35 reporter selection) (log enrichment difference); higher = more amyloid nucleation; sequences are the first 22 residues of the Bri2 peptide extended by up to 12 random residues
Conditions: random library (experiment): 1;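 active = nucleation score significantly above 0 at FDR 0.05; inactive = not significantly above 0 or absent from output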
In the case of EASNCFAIRHFENKFAVETLICRRKAGGFCSFVT, the amyloid nucleation score is reported as “inactive”. With EASNCFAIRHFENKFAVETLICTEWQAGPPAMVW the amyloid nucleation score was -0.195. In the case of EASNCFAIRHFENKFAVETLICMSGVYRFVDEHK, the amyloid nucleation score is reported as “inactive”. In the case of EASNCFAIRHFENKFAVETLICWKDGQRLSCVGQ, the amyloid nucleation score is reported as “inactive”. For EASNCFAIRHFENKFAVETLICDKYGHNGDVSGL, the amyloid nucleation score was 0.451. EASNCFAIRHFENKFAVETLICYIDWKWNILTGK showed an amyloid nucleation score of 0.49. Work on EASNCFAIRHFENKFAVETLICMYDRCMDCLLLT yielded an amyloid nucleation score of -0.146. For EASNCFAIRHFENKFAVETLICGPPR, the amyloid nucleation score was “inactive”. With EASNCFAIRHFENKFAVETLICASLGNTSFGTP the amyloid nucleation score was 1.53. EASNCFAIRHFENKFAVETLICMALESMVTVYRR gave an amyloid nucleation score of 6.86. In the case of EASNCFAIRHFENKFAVETLICTGPGERAWGTLF, the amyloid nucleation score is reported as 0.384. For EASNCFAIRHFENKFAVETLICRWMWIWRVTNGF, the amyloid nucleation score was “inactive”. For EASNCFAIRHFENKFAVETLICTYSHHLDIVANS, the amyloid nucleation score was “inactive”. For EASNCFAIRHFENKFAVETLICRLCWRCARPGVA, the amyloid nucleation score was 0.841. With EASNCFAIRHFENKFAVETLICDAGVTWRLCELG the amyloid nucleation score was “inactive”. With EASNCFAIRHFENKFAVETLICQADVRPIKWRAE the amyloid nucleation score was “inactive”. With EASNCFAIRHFENKFAVETLICAEGLSPLRVSWV the amyloid nucleation score was “inactive”. With EASNCFAIRHFENKFAVETLICGLRDRTSPLQYV the amyloid nucleation score was “inactive”. With EASNCFAIRHFENKFAVETLICTDTW the amyloid nucleation score was “inactive”. EASNCFAIRHFENKFAVETLICVETCCRSTRCGM gave an amyloid nucleation score of -0.309. In the case of EASNCFAIRHFENKFAVETLICWRMGDMFESKTP, the amyloid nucleation score is reported as “inactive”. Sequence EASNCFAIRHFENKFAVETLICFLQ has an amyloid nucleation score of 7.32. With EASNCFAIRHFENKFAVETLICMGKHQLQ the amyloid nucleation score was 0.987.

Same assay, conditions: random library (experiment): 2
EASNCFAIRHFENKFAVETLICFVQRTYSVIYLP gave an amyloid nucleation score of -0.122. EASNCFAIRHFENKFAVETLICIKFFVCG gave an amyloid nucleation score of 4.53. With EASNCFAIRHFENKFAVETLICRSDVSMIYHGSM the amyloid nucleation score was 2.27. In the case of EASNCFAIRHFENKFAVETLICFQVSLALESYC, the amyloid nucleation score is reported as “inactive”. EASNCFAIRHFENKFAVETLICRLNR showed an amyloid nucleation score of 2.19. Sequence EASNCFAIRHFENKFAVETLICVISAFEH has an amyloid nucleation score of 4.05. EASNCFAIRHFENKFAVETLICLIAVWA showed an amyloid nucleation score of 0.58. For EASNCFAIRHFENKFAVETLICAYENRWCSVRSQ, the amyloid nucleation score was “inactive”. EASNCFAIRHFENKFAVETLICVSFMGSVTVSLS gave an amyloid nucleation score of 0.806. With EASNCFAIRHFENKFAVETLICILISCVFTYNAG the amyloid nucleation score was “inactive”. In the case of EASNCFAIRHFENKFAVETLICYKACASFSGWIV, the amyloid nucleation score is reported as 1.04. In the case of EASNCFAIRHFENKFAVETLICYWKTFVLLHVVV, the amyloid nucleation score is reported as “inactive”. Sequence EASNCFAIRHFENKFAVETLICVYIFDHLYHDQG has an amyloid nucleation score of 2.85.

Same assay, conditions: random library (experiment): 3
EASNCFAIRHFENKFAVETLICCCWLGLNMVYGT showed an amyloid nucleation score of 1.3. For EASNCFAIRHFENKFAVETLICGDHVADRLRNVS, the amyloid nucleation score was 0.721. EASNCFAIRHFENKFAVETLICNRLVINCILTQP gave an amyloid nucleation score of 4.04. Sequence EASNCFAIRHFENKFAVETLICGMCPSWT has an amyloid nucleation score of 9.78. In the case of EASNCFAIRHFENKFAVETLICTLPAMWFGLVPW, the amyloid nucleation score is reported as “inactive”. With EASNCFAIRHFENKFAVETLICQYYARWQRVVTL the amyloid nucleation score was “inactive”. In the case of EASNCFAIRHFENKFAVETLICVSQG, the amyloid nucleation score is reported as “inactive”. With EASNCFAIRHFENKFAVETLICRFVDVQVHNANL the amyloid nucleation score was “inactive”. For EASNCFAIRHFENKFAVETLICESGWSWTGHNTW, the amyloid nucleation score was 3.98. For EASNCFAIRHFENKFAVETLICVPEEEQSGRAVG, the amyloid nucleation score was “inactive”. For EASNCFAIRHFENKFAVETLICFVDSLPHVHASF, the amyloid nucleation score was “inactive”. In the case of EASNCFAIRHFENKFAVETLICERF, the amyloid nucleation score is reported as “inactive”.
